# In PMC11411711 (ACS Nano, 2024):
# Test system: apoptotic cells in injured cortex and hippocampus
# Test: TUNEL staining
# Conditions: 1 h, n = 10 mice
substance,measurement,value
CAST–PEG–CS: 40 kDa 8-arm PEG scaffold modified with CAST and CS peptide (activity-based nanotheranostic) (chain 1 DPMSSTYIEELGKREVTIPPKYRELLAKC; chain 2 QEVYGAMPKGC; not fully specified; 5FAM on the added lysine; C-terminal amide; cysteine joined to the 8-arm PEG by maleimide chemistry | QSY21 on the N-terminus; Cy5 on the lysine; PEG2 spacer between K(Cy5) and GC; c),"number of apoptotic cells (words, figure title)",reduces the number of apoptotic cells in the injured cortex and hippocampus
